# Test results published in the supplement of paper PMC10037445.
# The full ranking holds about 2,900 compounds; the median of “IRF Lucia reporter activity, fold change vs agonist alone” is about 0.9, and the highest 2% start at about 2.8. Some of the results follow.
# What was measured:
# [1] = test system: RAW-Dual; assay: IRF Lucia reporter activity, fold change vs agonist alone; cytotoxicity flag (confluency mask): not cytotoxic; higher = enhanced IRF activity
# How it was run: (§1)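 RAW-Dual macrophages were seeded in DMEM at 50,000 cells/well in 384-well plates, given 50 nL of library stock by pin tool, and given a PRR agonist 1 h later. Plates were held at 37 °C, 5% CO2 for 20 hours, after which supernatant was read for IRF by QuantiLuc luminescence and for NF-κB by QuantiBlue absorbance at 620 nm. Reporter activity is expressed as fold change over wells that received agonist alone. A well was called cytotoxic when IncuCyte confluency fell below 70% of agonist controls in both mask sets.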
# [2] = test system: RAW-Dual; assay: IRF Lucia reporter activity, fold change vs agonist alone; higher = enhanced IRF activity; details: library stock concentration (final ~1000-fold dilution): 10 mM, agonist: MPLA (TLR4) […]
# How it was run: as §1
# [3] = test system: RAW-Dual; assay: IRF Lucia reporter activity, fold change vs agonist alone; cytotoxicity flag (confluency mask): cytotoxic (confluency <70% of control); higher = enhanced IRF activity
# How it was run: as §1
# [4] = agonist: 3'3'-cGAMP (STING) 10 ug/mL
# [5] = cytotoxicity flag (confluency mask): not cytotoxic
structure (smiles),measurement,setting,value
Cc1c(Cc2ccc3ccccc3n2)c2cc(F)ccc2n1CC(=O)O (library stock concentration (final ~1000-fold dilution): 10 mM),IRF Lucia reporter activity,[1]; [4],1.07
same,IRF Lucia reporter activity,[1]; agonist: LPS (TLR4) 0.1 ug/mL,1.03
Cc1c(Cc2ccc3ccccc3n2)c2cc(F)ccc2n1CC(=O)O,IRF Lucia reporter activity,[2]; [5],1.05
COc1ccc(-c2coc3cc(O)ccc3c2=O)cc1S(=O)(=O)O (library stock concentration (final ~1000-fold dilution): 10 mM),IRF Lucia reporter activity,[1]; [4],0.98
same,IRF Lucia reporter activity,[1]; agonist: LPS (TLR4) 0.1 ug/mL,1.22
C/C=C(/C)C(=O)OC1c2c(ccc3ccc(=O)oc23)OC(C)(C)C1OC(=O)/C(C)=C\C (stereo not drawn) (library stock concentration (final ~1000-fold dilution): 10 mM),IRF Lucia reporter activity,[1]; [4],1.31
same,IRF Lucia reporter activity,[1]; agonist: LPS (TLR4) 0.1 ug/mL,0.143
C[C@@H]1O[C@@H](O[C@H]2C(=O)c3c(O)cc(O)cc3O[C@@H]2c2ccc(O)cc2)[C@H](O)[C@H](O)[C@H]1O (library stock concentration (final ~1000-fold dilution): 10 mM),IRF Lucia reporter activity,[1]; [4],0.228
same,IRF Lucia reporter activity,[1]; agonist: LPS (TLR4) 0.1 ug/mL,1.17
O=C1NC(=O)/C(=C/c2ccc3c(c2)OC(F)(F)O3)S1 (library stock concentration (final ~1000-fold dilution): 10 mM),IRF Lucia reporter activity,[1]; [4],0.97
same,IRF Lucia reporter activity,[1]; agonist: LPS (TLR4) 0.1 ug/mL,1.19
O=C1NC(=O)/C(=C/c2ccc3c(c2)OC(F)(F)O3)S1,IRF Lucia reporter activity,[2]; [5],1.03
CNC1(C)C2CCC(C2)C1(C)C.Cl (stereo not drawn) (library stock concentration (final ~1000-fold dilution): 10 mM),IRF Lucia reporter activity,[1]; [4],0.982
same,IRF Lucia reporter activity,[1]; agonist: LPS (TLR4) 0.1 ug/mL,1.28
Br.Cc1ccc(-c2cn3c4c(sc3n2)CCCC4)cc1 (library stock concentration (final ~1000-fold dilution): 10 mM),IRF Lucia reporter activity,[1]; [4],0.958
same,IRF Lucia reporter activity,[1]; agonist: LPS (TLR4) 0.1 ug/mL,0.971
Br.Cc1ccc(-c2cn3c4c(sc3n2)CCCC4)cc1,IRF Lucia reporter activity,[2]; [5],1.06
Nc1ccc(C(=O)Nc2cccc(-c3nc(N4CCOCC4)c4oc5ncccc5c4n3)c2)cn1 (library stock concentration (final ~1000-fold dilution): 10 mM),IRF Lucia reporter activity,[1]; [4],0.205
same,IRF Lucia reporter activity,[1]; agonist: LPS (TLR4) 0.1 ug/mL,3.93
Nc1ccc(C(=O)Nc2cccc(-c3nc(N4CCOCC4)c4oc5ncccc5c4n3)c2)cn1,IRF Lucia reporter activity,[2]; [5],3.52
CCOC(=O)C(CCc1ccccc1)NC(C)C(=O)N1CCCC1C(=O)O.O=C(O)/C=C\C(=O)O (stereo not drawn) (library stock concentration (final ~1000-fold dilution): 10 mM),IRF Lucia reporter activity,[1]; [4],1.02
same,IRF Lucia reporter activity,[1]; agonist: LPS (TLR4) 0.1 ug/mL,0.873
CCOC(=O)C(CCc1ccccc1)NC(C)C(=O)N1CCCC1C(=O)O.O=C(O)/C=C\C(=O)O (stereo not drawn),IRF Lucia reporter activity,[2]; [5],0.969
CN(C)CCCN1c2ccccc2Sc2ccc(Cl)cc21,IRF Lucia reporter activity,[2]; [5],2.13
CN(C)CCCN1c2ccccc2Sc2ccc(Cl)cc21 (library stock concentration (final ~1000-fold dilution): 10 mM),IRF Lucia reporter activity,[1]; [4],0.984
same,IRF Lucia reporter activity,[1]; agonist: LPS (TLR4) 0.1 ug/mL,1.85
Cc1ccc(NC(=O)c2ccnc(C(F)(F)F)c2)cc1-c1cc(OCCO)nc(N2CCOCC2)c1 (library stock concentration (final ~1000-fold dilution): 10 mM),IRF Lucia reporter activity,[1]; [4],0.359
same,IRF Lucia reporter activity,[1]; agonist: LPS (TLR4) 0.1 ug/mL,0.647
Nc1ncnc2c1ncn2C1CCCO1 (stereo not drawn) (library stock concentration (final ~1000-fold dilution): 10 mM),IRF Lucia reporter activity,[1]; [4],0.881
same,IRF Lucia reporter activity,[1]; agonist: LPS (TLR4) 0.1 ug/mL,1.97
CC1CC(C(=O)O)C2CCC3(C)C(=CCC4C5(C)CCC(O)C(C)(C)C5CCC43C)C2C1C (stereo not drawn) (library stock concentration (final ~1000-fold dilution): 10 mM),IRF Lucia reporter activity,[1]; [4],0.973
same,IRF Lucia reporter activity,[1]; agonist: LPS (TLR4) 0.1 ug/mL,1.12
CC1CC(C(=O)O)C2CCC3(C)C(=CCC4C5(C)CCC(O)C(C)(C)C5CCC43C)C2C1C (stereo not drawn),IRF Lucia reporter activity,[2]; [5],1.06
CNCCN(C)Cc1c[nH]nc1-c1ccc(OC2CC(OCCC3CCOCC3)C2)cc1.Cl.Cl (stereo not drawn) (library stock concentration (final ~1000-fold dilution): 10 mM),IRF Lucia reporter activity,[1]; [4],0.626
same,IRF Lucia reporter activity,[1]; agonist: LPS (TLR4) 0.1 ug/mL,0.946
COc1ccnc(C[S+]([O-])c2nc3cc(OC(F)F)ccc3[nH]2)c1OC (stereo not drawn) (library stock concentration (final ~1000-fold dilution): 10 mM),IRF Lucia reporter activity,[1]; [4],1.15
same,IRF Lucia reporter activity,[1]; agonist: LPS (TLR4) 0.1 ug/mL,1.26
COc1ccnc(C[S+]([O-])c2nc3cc(OC(F)F)ccc3[nH]2)c1OC (stereo not drawn),IRF Lucia reporter activity,[2]; [5],1.19
Cc1cc(C)c(S(=O)(=O)n2cc(C)cc2C)c(C)c1,IRF Lucia reporter activity,[2]; [5],1.09
Cc1cc(C)c(S(=O)(=O)n2cc(C)cc2C)c(C)c1 (library stock concentration (final ~1000-fold dilution): 10 mM),IRF Lucia reporter activity,[1]; [4],1.06
same,IRF Lucia reporter activity,[1]; agonist: LPS (TLR4) 0.1 ug/mL,1.47
Cc1[nH]c2ccccc2c1CCNCc1ccc(/C=C/C(=O)NO)cc1,IRF Lucia reporter activity,[2]; cytotoxicity flag (confluency mask): cytotoxic (confluency <70% of control),0.35
Cc1[nH]c2ccccc2c1CCNCc1ccc(/C=C/C(=O)NO)cc1 (library stock concentration (final ~1000-fold dilution): 10 mM),IRF Lucia reporter activity,[3]; [4],0.0425
same,IRF Lucia reporter activity,[3]; agonist: LPS (TLR4) 0.1 ug/mL,0.775
C=CC(=O)Nc1ccc(CN2C(=O)N(c3cc(OC)cc(OC)c3)Cc3cnc(Nc4ccc(N5CCN(C)CC5)cc4)nc32)cc1 (library stock concentration (final ~1000-fold dilution): 10 mM),IRF Lucia reporter activity,[1]; [4],0.461
same,IRF Lucia reporter activity,[1]; agonist: LPS (TLR4) 0.1 ug/mL,0.265
O=C(O)[C@H]1O[C@@H](Oc2cc3oc(-c4ccccc4)cc(=O)c3c(O)c2O)[C@H](O)[C@@H](O)[C@@H]1O (library stock concentration (final ~1000-fold dilution): 10 mM),IRF Lucia reporter activity,[1]; [4],0.872
same,IRF Lucia reporter activity,[1]; agonist: LPS (TLR4) 0.1 ug/mL,1.25
Cn1cc(-c2ccncc2)c(-c2ccc(OCc3ccc4ccccc4n3)cc2)n1 (library stock concentration (final ~1000-fold dilution): 10 mM),IRF Lucia reporter activity,[1]; [4],0.494
same,IRF Lucia reporter activity,[1]; agonist: LPS (TLR4) 0.1 ug/mL,0.793
Cn1cc(-c2ccncc2)c(-c2ccc(OCc3ccc4ccccc4n3)cc2)n1,IRF Lucia reporter activity,[2]; [5],0.795
CC(C)OC(=O)C(C)NP(=O)(OCC1OC(n2ccc(=O)[nH]c2=O)C(C)(F)C1O)Oc1ccccc1 (stereo not drawn) (library stock concentration (final ~1000-fold dilution): 10 mM),IRF Lucia reporter activity,[1]; [4],1.04
same,IRF Lucia reporter activity,[1]; agonist: LPS (TLR4) 0.1 ug/mL,0.731
CC(C)OC(=O)C(C)NP(=O)(OCC1OC(n2ccc(=O)[nH]c2=O)C(C)(F)C1O)Oc1ccccc1 (stereo not drawn),IRF Lucia reporter activity,[2]; [5],1.04
O=C(/C=C/c1cccnc1)c1ccncc1 (library stock concentration (final ~1000-fold dilution): 10 mM),IRF Lucia reporter activity,[1]; [4],0.859
same,IRF Lucia reporter activity,[1]; agonist: LPS (TLR4) 0.1 ug/mL,1.27
O=C1C(CCC(O)c2ccc(F)cc2)C(c2ccc(O)cc2)N1c1ccc(F)cc1 (stereo not drawn) (library stock concentration (final ~1000-fold dilution): 10 mM),IRF Lucia reporter activity,[1]; [4],1.17
same,IRF Lucia reporter activity,[1]; agonist: LPS (TLR4) 0.1 ug/mL,1.09
O=C1C(CCC(O)c2ccc(F)cc2)C(c2ccc(O)cc2)N1c1ccc(F)cc1 (stereo not drawn),IRF Lucia reporter activity,[2]; [5],1.19
OCC1=CC(O)C2C=COC(OC3OC(CO)C(O)C(O)C3O)C12 (stereo not drawn),IRF Lucia reporter activity,[2]; [5],1.01
OCC1=CC(O)C2C=COC(OC3OC(CO)C(O)C(O)C3O)C12 (stereo not drawn) (library stock concentration (final ~1000-fold dilution): 10 mM),IRF Lucia reporter activity,[1]; [4],1.05
same,IRF Lucia reporter activity,[1]; agonist: LPS (TLR4) 0.1 ug/mL,1.37
c1cncc(CN2CCC(n3ncc4c(N5CCOCC5)nc(-c5ccc6[nH]ccc6c5)nc43)CC2)c1,IRF Lucia reporter activity,[2]; [5],1.05
c1cncc(CN2CCC(n3ncc4c(N5CCOCC5)nc(-c5ccc6[nH]ccc6c5)nc43)CC2)c1 (library stock concentration (final ~1000-fold dilution): 10 mM),IRF Lucia reporter activity,[1]; [4],0.967
same,IRF Lucia reporter activity,[1]; agonist: LPS (TLR4) 0.1 ug/mL,0.869
COC(=O)CC(O)(CCCC(C)(C)O)C(=O)OC1C(OC)=CC23CCCN2CCc2cc4c(cc2C13)OCO4 (stereo not drawn) (library stock concentration (final ~1000-fold dilution): 10 mM),IRF Lucia reporter activity,[3]; [4],0.0146
same,IRF Lucia reporter activity,[3]; agonist: LPS (TLR4) 0.1 ug/mL,0.0202
COC1CCN(C(=O)c2cc(Cc3n[nH]c(=O)c4ccccc34)ccc2F)CC1,IRF Lucia reporter activity,[2]; [5],0.983
COC1CCN(C(=O)c2cc(Cc3n[nH]c(=O)c4ccccc34)ccc2F)CC1 (library stock concentration (final ~1000-fold dilution): 10 mM),IRF Lucia reporter activity,[1]; [4],1.03
same,IRF Lucia reporter activity,[1]; agonist: LPS (TLR4) 0.1 ug/mL,0.722
COc1ccc(C[C@@H]2c3cc(Oc4cc(C[C@@H]5c6cc(OC)c(OC)cc6CCN5C)ccc4O)c(OC)cc3CCN2C)cc1 (library stock concentration (final ~1000-fold dilution): 10 mM),IRF Lucia reporter activity,[1]; [4],0.0517
same,IRF Lucia reporter activity,[1]; agonist: LPS (TLR4) 0.1 ug/mL,0.991
CC(C)(c1ccc(OCC(O)CO)cc1)c1ccc(OCC(O)CCl)cc1 (stereo not drawn) (library stock concentration (final ~1000-fold dilution): 10 mM),IRF Lucia reporter activity,[1]; [4],0.998
same,IRF Lucia reporter activity,[1]; agonist: LPS (TLR4) 0.1 ug/mL,1.04
O=C(Nc1ccc(Cl)cc1)c1cc2ccccc2cc1OP(=O)(O)O (library stock concentration (final ~1000-fold dilution): 10 mM),IRF Lucia reporter activity,[1]; [4],1.19
same,IRF Lucia reporter activity,[1]; agonist: LPS (TLR4) 0.1 ug/mL,1.12
CCOC(=O)c1[nH]c2cc(Cl)ccc2c1C(C(=O)NC(C)(C)C)N(C=O)Cc1ccc(Cl)cc1 (stereo not drawn),IRF Lucia reporter activity,[2]; [5],1.18
CCOC(=O)c1[nH]c2cc(Cl)ccc2c1C(C(=O)NC(C)(C)C)N(C=O)Cc1ccc(Cl)cc1 (stereo not drawn) (library stock concentration (final ~1000-fold dilution): 10 mM),IRF Lucia reporter activity,[1]; [4],0.962
same,IRF Lucia reporter activity,[1]; agonist: LPS (TLR4) 0.1 ug/mL,1.36
CCCCN1CCCCC1C(=O)Nc1c(C)cccc1C (stereo not drawn),IRF Lucia reporter activity,[2]; [5],1.19
CCCCN1CCCCC1C(=O)Nc1c(C)cccc1C (stereo not drawn) (library stock concentration (final ~1000-fold dilution): 10 mM),IRF Lucia reporter activity,[1]; [4],0.972
same,IRF Lucia reporter activity,[1]; agonist: LPS (TLR4) 0.1 ug/mL,1.37
CC(=O)OC1(C(C)=O)CCC2C3C=C(C)C4=CC(=O)CCC4(C)C3CCC21C (stereo not drawn) (library stock concentration (final ~1000-fold dilution): 10 mM),IRF Lucia reporter activity,[1]; [4],1.09
same,IRF Lucia reporter activity,[1]; agonist: LPS (TLR4) 0.1 ug/mL,0.962
CC(=O)OC1(C(C)=O)CCC2C3C=C(C)C4=CC(=O)CCC4(C)C3CCC21C (stereo not drawn),IRF Lucia reporter activity,[2]; [5],1
CCCCc1ccc(O)cc1O (library stock concentration (final ~1000-fold dilution): 10 mM),IRF Lucia reporter activity,[1]; [4],0.96
same,IRF Lucia reporter activity,[1]; agonist: LPS (TLR4) 0.1 ug/mL,1.45
CCCCc1ccc(O)cc1O,IRF Lucia reporter activity,[2]; [5],1.22
